Test results as given in PMC6303091.
Results are given in words; binding and its absence hold for the method and conditions named. Some results given as binding are weak or reduced against the parent protein; the word gives no strength.

Chains of the proteins cited; added tags and fusions are not shown.
UniProt Q9SZJ6: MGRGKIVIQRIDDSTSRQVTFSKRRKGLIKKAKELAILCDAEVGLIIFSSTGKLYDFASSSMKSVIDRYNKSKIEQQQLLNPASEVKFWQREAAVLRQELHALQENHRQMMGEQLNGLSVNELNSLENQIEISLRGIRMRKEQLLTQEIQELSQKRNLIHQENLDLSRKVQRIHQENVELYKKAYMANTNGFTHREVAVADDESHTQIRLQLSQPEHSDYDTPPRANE
UniProt P93830: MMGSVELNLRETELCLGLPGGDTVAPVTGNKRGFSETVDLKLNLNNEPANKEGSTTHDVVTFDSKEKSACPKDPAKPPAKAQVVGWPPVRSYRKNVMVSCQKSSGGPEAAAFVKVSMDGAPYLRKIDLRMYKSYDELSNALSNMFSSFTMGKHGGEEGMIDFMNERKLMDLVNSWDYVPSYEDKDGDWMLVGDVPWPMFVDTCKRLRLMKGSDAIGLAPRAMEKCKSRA
UniProt Q9SV55: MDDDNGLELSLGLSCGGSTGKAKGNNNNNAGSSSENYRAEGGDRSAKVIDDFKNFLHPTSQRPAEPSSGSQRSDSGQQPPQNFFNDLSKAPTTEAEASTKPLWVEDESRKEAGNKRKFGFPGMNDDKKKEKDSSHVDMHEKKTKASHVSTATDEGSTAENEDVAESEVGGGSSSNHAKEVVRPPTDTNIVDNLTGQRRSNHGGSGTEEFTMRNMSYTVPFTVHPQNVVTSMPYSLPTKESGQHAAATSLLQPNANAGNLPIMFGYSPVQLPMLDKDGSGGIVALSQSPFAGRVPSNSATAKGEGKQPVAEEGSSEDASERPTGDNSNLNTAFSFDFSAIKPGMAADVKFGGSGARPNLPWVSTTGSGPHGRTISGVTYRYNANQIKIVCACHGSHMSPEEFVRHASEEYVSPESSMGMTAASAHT
UniProt Q7XA73: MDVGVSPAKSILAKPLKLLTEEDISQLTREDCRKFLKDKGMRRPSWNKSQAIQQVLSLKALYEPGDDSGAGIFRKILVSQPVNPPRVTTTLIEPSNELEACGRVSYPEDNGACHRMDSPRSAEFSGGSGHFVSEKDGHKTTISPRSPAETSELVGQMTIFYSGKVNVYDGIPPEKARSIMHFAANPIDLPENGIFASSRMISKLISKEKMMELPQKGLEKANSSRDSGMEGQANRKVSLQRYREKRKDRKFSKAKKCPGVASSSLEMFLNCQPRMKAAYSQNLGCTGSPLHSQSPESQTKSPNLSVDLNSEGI

B1: A. thaliana indole-3-acetic acid inducible 2 (IAA2), library prey (protein, UniProt P49678 1-174)
chain: MAYEKVNELNLKDTELCLGLPGRTEKIKEEQEVSCVKSNNKRLFEETRDEEESTPPTKTQIVGWPPVRSSRKNNNSVSYVKVSMDGAPYLRKIDLKTYKNYPELLKALENMFKVMIGEYCEREGYKGSGFVPTYEDKDGDWMLVGDVPWDMFSSSCKRLRIMKGSDAPALDSSL
B2: A. thaliana indole-3-acetic acid inducible 28 (IAA28), library prey (protein, UniProt Q9XFM0 1-175)
chain: MEEEKRLELRLAPPCHQFTSNNNINGSKQKSSTKETSFLSNNRVEVAPVVGWPPVRSSRRNLTAQLKEEMKKKESDEEKELYVKINMEGVPIGRKVNLSAYNNYQQLSHAVDQLFSKKDSWDLNRQYTLVYEDTEGDKVLVGDVPWEMFVSTVKRLHVLKTSHAFSLSPRKHGKE
B3: A. thaliana indole-3-acetic acid inducible 4 (IAA4), library prey (protein, UniProt P33077 1-186)
chain: MEKVDVYDELVNLKATELRLGLPGTEETVSCGKSNKRVLPEATEKEIESTGKTETASPPKAQIVGWPPVRSYRKNNVQTKKSESEGQGNYVKVSMDGAPYLRKIDLTMYKQYPELMKSLENMFKFSVGEYFEREGYKGSDFVPTYEDKDGDWMLVGDVPWEMFVSSCKRLRIMKGSEVKGLGCGGL
B4: IAA11 (AT4G28640), library prey (protein, UniProt Q38829 1-246)
chain: MEGGSASGSASALSNDENLVVSCEDSSSPIGNELELGLTLSLGRKGYRDCRVYADDSSSSSSSSSLSRASVIAGIKRTADSMAATSGQVVGWPPIRTYRMNSMVNQAKASATEDPNLEISQAVNKNRSDSTKMRNSMFVKVTMDGIPIGRKIDLNAHKCYESLSNTLEEMFLKPKLGSRTLETDGHMETPVKILPDGSSGLVLTYEDKEGDWMLVGDVPWGMFIGSVRRLRIMKTSEATGKAQMIL
B5: IAA27 (AT4G29080), library prey (protein, UniProt Q9ZSY8 1-305)
chain: MSVSVAAEHDYIGLSEFPTMEATTMSDKTKTRDNNNGLNFKATELRLGLPGSESPERVDSRFLALNKSSCPVSGAKRVFSDAINDSNKWVFSPGSTTATGDVGSGSGPRTSVVKDGKSTTFTKPAVPVKEKKSSATAPASKAQVVGWPPIRSFRKNSMASSQSQKPGNNSETEEAEAKSGPEQPCLYVKVSMEGAPYLRKIDLKTYKSYLELSSALEKMFSCFTIGQFGSHGGCGRDGLNESRLTDLLRGSEYVVTYEDKDSDWMLVGDVPWEMFICSCKKLRIMKSSEAIGLAPRVMEKCRSRN
B6: IAA19 (AT3G15540), library prey (protein, UniProt O24409 1-197)
chain: MEKEGLGLEITELRLGLPGRDVAEKMMKKRAFTEMNMTSSGSNSDQCESGVVSSGGDAEKVNDSPAAKSQVVGWPPVCSYRKKNSCKEASTTKVGLGYVKVSMDGVPYLRKMDLGSSQGYDDLAFALDKLFGFRGIGVALKDGDNCEYVTIYEDKDGDWMLAGDVPWGMFLESCKRLRIMKRSDATGFGLQPRGVDE
B7: IAA13 (AT2G33310), library prey (protein, UniProt Q38831 1-247)
chain: MITELEMGKGESELELGLGLSLGGGTAAKIGKSGGGGAWGERGRLLTAKDFPSVGSKRAADSASHAGSSPPRSSSQVVGWPPIGSHRMNSLVNNQATKSAREEEEAGKKKVKDDEPKDVTKKVNGKVQVGFIKVNMDGVAIGRKVDLNAHSSYENLAQTLEDMFFRTNPGTVGLTSQFTKPLRLLDGSSEFVLTYEDKEGDWMLVGDVPWRMFINSVKRLRVMKTSEANGLAARNQEPNERQRKQPV
B8: IAA20 (AT2G46990), library prey (protein, UniProt O24410 1-175)
chain: MGRGRSSSSSSIESSSKSNPFGASSSTRNLSTDLRLGLSFGTSSGTQYFNGGYGYSVAAPAVEDAEYVAAVEEEEENECNSVGSFYVKVNMEGVPIGRKIDLMSLNGYRDLIRTLDFMFNASILWAEEEDMCNEKSHVLTYADKEGDWMMVGDVPWEMFLSTVRRLKISRANYHY
B9: AGL15 (AT5G13790), library prey (protein, UniProt Q38847 1-268)
chain: MGRGKIEIKRIENANSRQVTFSKRRSGLLKKARELSVLCDAEVAVIVFSKSGKLFEYSSTGMKQTLSRYGNHQSSSASKAEEDCAEVDILKDQLSKLQEKHLQLQGKGLNPLTFKELQSLEQQLYHALITVRERKERLLTNQLEESRLKEQRAELENETLRRQVQELRSFLPSFTHYVPSYIKCFAIDPKNALINHDSKCSLQNTDSDTTLQLGLPGEAHDRRTNEGERESPSSDSVTTNTSSETAERGDQSSLANSPPEAKRQRFSV
B10: IAA18 (AT1G51950), library prey (protein, UniProt O24408 1-267)
chain: MEGYSRNGEISPKLLDLMIPQERRNWFHDEKNSVFKTEEKKLELKLGPPGEEDDDESMIRHMKKEPKDKSILSLAGKYFSPSSTKTTSHKRTAPGPVVGWPPVRSFRKNLASGSSSKLGNDSTTSNGVTLKNQKCDAAAKTTEPKRQGGMFVKINMYGVPIGRKVDLSAHNSYEQLSFTVDKLFRGLLAAQRDFPSSIEDEKPITGLLDGNGEYTLTYEDNEGDKMLVGDVPWQMFVSSVKRLRVIKTSEISSALTYGNGKQEKMRR
B11: IAA10 (AT1G04100), library prey (protein, UniProt Q38828 1-261)
chain: MNGLQEVCSSSGSVMIGLPAEEDENAAHSSEDSSCPDESVSETELDLALGLSIGRRKVRSSLSSSSSSLTRESGTKRSADSSPAAASNATRQVAVGWPPLRTYRINSLVNQAKSLATEGGLSSGIQKETTKSVVVAAKNDDACFIKSSRTSMLVKVTMDGVIIGRKVDLNALDSYAALEKTLDLMFFQIPSPVTRSNTQGYKTIKETCTSKLLDGSSEYIITYQDKDGDWMLVGDVPWQMFLGSVTRLRIMKTSIGAGVGK
B12: AT3G19860, library prey (protein, UniProt Q9LT23 1-337)
chain: MGIRENGIMLVSRERERARRLENRESIFAEPPCLLLAHRISPSPSILPAEEEVMDVSARKSQKAGREKLRREKLNEHFVELGNVLDPERPKNDKATILTDTVQLLKELTSEVNKLKSEYTALTDESRELTQEKNDLREEKTSLKSDIENLNLQYQQRLRSMSPWGAAMDHTVMMAPPPSFPYPMPIAMPPGSIPMHPSMPSYTYFGNQNPSMIPAPCPTYMPYMPPNTVVEQQSVHIPQNPGNRSREPRAKVSRESRSEKAEDSNEVATQLELKTPGSTSDKDTLQRPEKTKRCKRNNNNNSIEESSHSSKCSSSPSVRDHSSSSSVAGGQKPDDAK
B13: ATCKA2 (AT3G50000), library prey (protein, UniProt Q08466 1-403)
chain: MHLIFFFSYFLRRYLLLLCAILILRAPLAHSLIPPLTCVNTGTVESDVTGIRFDRCLDTDSLAKISLSTVMSKARVYTDVNVIRPKDYWDYESLNVQWGEQDDYEVVRKVGRGKYSEVFEGINMNNNEKCIIKILKPVKKKKIRREIKILQNLCGGPNIVKLLDVVRDQHSKTPSLIFEYVNSTDFKVLYPTLTDYDIRYYIYELLKALDFCHSQGIMHRDVKPHNVMIDHELRKLRLIDWGLAEFYHPGKEYNVRVASRYFKGPELLVDLQDYDYSLDMWSLGCMFAGMIFRKEPFFYGHDNQDQLVKIAKVLGTDELNAYLNKYQLELDTQLEALVGRHSRKPWSKFINADNRHLVSPEAIDYLDKLLRYDHQDRLTAKEAMAHPYFAQVRAAESSRMRTQ
B14: JAZ2, cloned prey (protein, UniProt Q9S7M2 1-249)
chain: MSSFSAECWDFSGRKPSFSQTCTRLSRYLKEKGSFGDLSLGMTCKPDVNGGSRQPTMMNLFPCEASGMDSSAGQEDIKPKTMFPRQSSFSSSSSSGTKEDVQMIKETTKSVKPESQSAPLTIFYGGRVMVFDDFSAEKAKEVIDLANKGSAKSFTCFTAEVNNNHSAYSQKEIASSPNPVCSPAKTAAQEPIQPNPASLACELPIARRASLHRFLEKRKDRITSKAPYQIDGSAEASSKPTNPAWLSSR
B15: JAZ4, cloned prey (protein, UniProt Q58G47 1-310)
chain: MERDFLGLGSKLSPITVKEETNEDSAPSRGMMDWSFSSKVGSGPQFLSFGTSQQETRVNTVNDHLLSSAAMDQNQRTYFSSLQEDRVFPGSSQQDQTTITVSMSEPNYINSFINHQHLGGSPIMAPPVSVFPAPTTIRSSSKPLPPQLTIFYAGSVLVYQDIAPEKAQAIMLLAGNGPHAKPVSQPKPQKLVHHSLPTTDPPTMPPSFLPSISYIVSETRSSGSNGVTGLGPTKTKASLASTRNNQTAAFSMAPTVGLPQTRKASLARFLEKRKERVINVSPYYVDNKSSIDCRTLMSECVSCPPAHHLH
B16: AT4G36480, cloned prey (protein, UniProt Q94IB8 1-482)
chain: MASNLVEMFNAALNWVTMILESPSARVVLFGVPIRGHFFVEGLLGVVIIILLTRKSYKPPKRPLTEQEIDELCDEWVPEPLIPPITEDMKHEPPVLESAAGPHTTVNGKDVVNFASANYLGLIGHEKLLESCTSALEKYGVGSCGPRGFYGTIDVHLDCETRISKFLGTPDSILYSYGLSTMFSTIPCFCKKGDVIVADEGVHWGIQNGLQLSRSTIVYFKHNDMESLRITLEKIMTKYKRSKNLRRYIVAEAVYQNSGQIAPLDEIVKLKEKYRFRVILDESNSFGVLGRSGRGLAEHHSVPIEKIDVVTAAMGHALATEGGFCTGNARIIDYQRLSSSGYVFSASLPPYLASAAITAIDVIDQNPDMLVKLKQNVALLWKGLSDIKGMSLTSNRESPIVFLKLEKSSGSAKDDLLLLEKMADRALKEDSLLVVSSKRSFLDKCRLPVGIKLYVSAGHSESDLLKASESLKRLASELLLKS
B17: AT3G06850, cloned prey (protein, UniProt Q9M7Z1 1-483)
chain: MIARRIWRSHRFLRPFSSSSVCSPPFRVPEYLSQSSSSPASRPFFVHPPTLMKWGGGSRSWFSNEAMATDSNSGLIDVPLAQTGEGIAECELLKWFVKEGDSVEEFQPLCEVQSDKATIEITSRFKGKVALISHSPGDIIKVGETLVRLAVEDSQDSLLTTDSSEIVTLGGSKQGTENLLGALSTPAVRNLAKDLGIDINVITGTGKDGRVLKEDVLRFSDQKGFVTDSVSSEHAVIGGDSVSTKASSNFEDKTVPLRGFSRAMVKTMTMATSVPHFHFVEEINCDSLVELKQFFKENNTDSTIKHTFLPTLIKSLSMALTKYPFVNSCFNAESLEIILKGSHNIGVAMATEHGLVVPNIKNVQSLSLLEITKELSRLQHLAANNKLNPEDVTGGTITLSNIGAIGGKFGSPLLNLPEVAIIALGRIEKVPKFSKEGTVYPASIMMVNIAADHRVLDGATVARFCCQWKEYVEKPELLMLQMR

Molecular target: T1, TOPLESS amino-terminal region (TPL-N), bait (A. thaliana) (UniProt Q94AI7)
T1 sequence: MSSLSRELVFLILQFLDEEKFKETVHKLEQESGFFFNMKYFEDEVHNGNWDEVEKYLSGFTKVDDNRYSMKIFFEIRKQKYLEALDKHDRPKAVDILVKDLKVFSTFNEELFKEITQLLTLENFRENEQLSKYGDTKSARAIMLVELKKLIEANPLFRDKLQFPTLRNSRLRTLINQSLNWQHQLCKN
Experiment: two-hybrid; library screen (Y2H-seq): PJ69-4α bait strain transformed with the A. thaliana AT7 cDNA prey library; SD-Leu-Trp-His + 5 mM 3-AT; preys identified by Sanger sequencing of colonies, qPCR and NGS of pooled prey inserts, against an EMPTY bait screen or the library

Molecule | binding
AGL21 (AT4G37940), library prey (from UniProt Q9SZJ6 1-228) | binds
IAA17 (AT1G04250), library prey (from UniProt P93830 1-229) | binds
B1 | binds
B2 | binds
B3 | binds
B4 | binds
B5 | binds
B6 | binds
B7 | binds
B8 | binds
B9 | binds
B10 | binds
B11 | binds
B12 | binds
B13 | no binding

Molecular target: Novel Interactor of JAZ (NINJA), bait (A. thaliana) (UniProt Q9SV55)
Experiment: two-hybrid; binary Y2H, GAL4 system, S. cerevisiae PJ69-4α co-transformed with bait (GAL4 DBD) and prey (GAL4 AD); 30°C; growth on SD-Leu-Trp-His against SD-Leu-Trp

Molecule | binding
PPD1, cloned prey (from UniProt Q7XA73 1-313) | binds
B14 | binds
B15 | binds
B16 | no binding
B17 | no binding
